Experimental data taken from paper PMC4336329 (PLoS ONE, 2015).
About 2,200 (0.71%) of roughly 310,000 compounds showed an effect of 50% or more. Effects have a minus sign here. The list shows a part of the results.

Target: human ether-à-go-go-related gene (hERG) potassium channel (human, UniProt Q12809)
Assay: primary screen, population patch clamp on CHO cells stably expressing hERG

Chain of human ether-à-go-go-related gene (hERG) potassium channel (Q12809 whole entry, looked up): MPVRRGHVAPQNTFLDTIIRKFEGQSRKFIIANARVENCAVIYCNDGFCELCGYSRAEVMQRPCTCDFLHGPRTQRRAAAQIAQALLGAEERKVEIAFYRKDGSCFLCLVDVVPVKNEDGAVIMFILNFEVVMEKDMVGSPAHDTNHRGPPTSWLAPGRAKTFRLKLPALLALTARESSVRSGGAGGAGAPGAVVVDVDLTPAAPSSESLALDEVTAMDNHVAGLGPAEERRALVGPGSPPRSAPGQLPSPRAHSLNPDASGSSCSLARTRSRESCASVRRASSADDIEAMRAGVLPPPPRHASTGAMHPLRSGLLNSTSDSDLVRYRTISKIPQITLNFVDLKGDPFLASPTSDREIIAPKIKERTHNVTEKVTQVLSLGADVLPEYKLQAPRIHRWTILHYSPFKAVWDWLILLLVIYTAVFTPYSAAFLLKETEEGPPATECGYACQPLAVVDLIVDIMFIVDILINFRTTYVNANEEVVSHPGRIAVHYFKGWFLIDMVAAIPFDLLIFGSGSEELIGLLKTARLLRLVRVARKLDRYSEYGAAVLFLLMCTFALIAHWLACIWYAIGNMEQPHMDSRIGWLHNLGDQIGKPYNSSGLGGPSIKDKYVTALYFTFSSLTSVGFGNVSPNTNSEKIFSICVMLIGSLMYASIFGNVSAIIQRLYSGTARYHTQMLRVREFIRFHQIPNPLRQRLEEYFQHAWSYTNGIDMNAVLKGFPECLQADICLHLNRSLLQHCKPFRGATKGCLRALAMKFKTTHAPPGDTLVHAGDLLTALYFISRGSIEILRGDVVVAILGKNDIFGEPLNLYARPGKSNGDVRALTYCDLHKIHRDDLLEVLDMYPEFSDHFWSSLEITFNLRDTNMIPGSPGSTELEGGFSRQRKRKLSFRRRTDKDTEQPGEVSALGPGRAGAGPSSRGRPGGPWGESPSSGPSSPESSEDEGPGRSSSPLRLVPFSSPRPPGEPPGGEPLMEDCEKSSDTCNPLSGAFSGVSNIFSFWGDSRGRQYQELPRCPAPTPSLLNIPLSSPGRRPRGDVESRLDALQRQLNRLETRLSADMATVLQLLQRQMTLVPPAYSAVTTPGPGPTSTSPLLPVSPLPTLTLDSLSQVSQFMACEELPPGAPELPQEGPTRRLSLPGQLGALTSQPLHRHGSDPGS

Row | Structure (SMILES) | hERG current change (%, negative = inhibition) at 1uM
1 | O=c1c2cc([N+](=O)[O-])cc([N+](=O)[O-])c2[nH]n1-c1ccccc1 | 13.8%
2 | CC(=O)Nc1ccc(NC(=O)C(C)OC(=O)c2ccc(OCc3c(C)noc3C)cc2)cc1 (centres unmarked) | -15.5%
3 | CCNC(=O)COC(=O)CCC(=O)c1ccc(F)cc1 | 5.15%
4 | COCCNC(=O)N1[C@H]2CC[C@@H]1C(C(=O)OC)=C(c1ccc(OC(F)(F)F)cc1)C2 | 11.6%
5 | CN1/C(=C/c2cccc[n+]2C)Sc2ccccc21.[I-] | -16.9%
6 | CC(=O)N1c2ccccc2NC(=O)C1(C)C | 13.8%
7 | Cc1ccc(C(=O)NN=C2CCCCCC2)s1 | 6.19%
8 | COc1ccccc1-n1cnnc1SC(C)C(=O)Nc1cccc([N+](=O)[O-])c1 (centres unmarked) | 12.3%
9 | COc1cc(C(=O)Nc2cccc(C)c2C)c(Br)c(OC)c1OC | 4.34%
10 | CCOC(=O)C1CCN(C(=O)c2n[nH]c(=O)c3ccccc23)CC1 | 15.7%
11 | COc1ccc(C2C(C(=O)Nc3cccnc3)=C(C)Nc3nc(-c4cccs4)nn32)cc1OC (centres unmarked) | 11.3%
12 | CN1CCN(c2ccc(CNS(=O)(=O)Cc3ccc(Cl)cc3)cc2)CC1 | 10.8%
13 | CC(C)(C)n1nc2c(c1NC(=O)c1ccccc1S(=O)(=O)C(F)F)CS(=O)(=O)C2 | 7.96%
14 | CCCCC(=O)Nc1cccc(C(=O)N/N=C/c2ccc(OC)cc2OC)c1 | 7.55%
15 | O=C(CNC(=S)N(Cc1ccc(F)cc1)C1CCCCC1)NCCN1CCOCC1 | 4.36%
16 | OC(COc1ccc2ccccc2c1Br)Cn1cnc(-c2ccccc2)c1 (centres unmarked) | 5.05%
17 | Cc1cc(C)n2nc(CC(=O)NNC(=O)COc3ccccc3)nc2n1 | 5.14%
18 | CCOc1ccc(-c2c(C(=O)N/N=C/c3ccccc3)nnn2-c2nonc2N)cc1 | 12.1%
19 | Cc1c(C(=O)N2CCCC2)oc2c1-c1nn(CC(=O)NCCCN3CCCCC3C)cc1CC2 (centres unmarked) | 32.8%
20 | Cc1cc(C(=O)Cn2nc(C(=O)O)c3ccccc3c2=O)c(C)n1-c1cccc(C(F)(F)F)c1 | -3.3%
21 | Cc1ccc2c(c1)C(=O)CC1(CCCC1)O2 | 0.593%
22 | Cc1cccc(-c2ncc(CN3CCCC(CO)(Cc4cccc(Cl)c4)C3)cn2)c1 (centres unmarked) | 5.65%
23 | O=C(CN(Cc1ccccc1)S(=O)(=O)c1ccc(Br)cc1)NCc1ccco1 | -3.16%

Row | Structure (SMILES) | hERG current change (%, negative = inhibition) at 1uM
24 | O=C(CCn1cnnn1)N1CCCC(Nc2ccc(F)c(F)c2)C1 (centres unmarked) | 15.1%
25 | C=CCOC(=O)C1=C[C@@H](C2CCCCC2)C[C@@H](OCc2ccc(CO)cc2)O1 | 12.6%
26 | COC(=O)c1c(C)[nH]c(O)c1C=Nc1ccc(C#N)cc1 | 7.01%
27 | COc1cc(/C=N/n2cnnc2)ccc1OCCOc1ccccc1 | 10.5%
28 | OCCC1CN(Cc2cnc(-c3ccccc3)s2)CCN1CCc1ccccc1 (centres unmarked) | -48.7%
29 | COC(=O)c1ccc(C2/C(=C(\O)c3ccc4c(c3)OCCO4)C(=O)C(=O)N2c2nnc(C)s2)cc1 (centres unmarked) | 12.8%
30 | Cc1ccc2[nH]c(=O)c(CN(CCCO)S(=O)(=O)c3cccc4nsnc34)cc2c1 | -5.96%
31 | Nc1ccccc1-c1nc2ccccc2c(=O)o1 | 15.5%
32 | COc1ccc(OC)c(S(=O)(=O)Nc2c(NC3CCCCC3)c3ccccc3oc2=O)c1 | -2.54%
33 | O=C(Nc1ccc(N2CCOCC2)cc1)c1ccncc1 | 8.02%
34 | CCOc1ccccc1CNCCc1ccc2c(c1)OCO2.Cl | 1.75%
35 | CC(=O)c1ccc([C@H]2C[C@@]34CN(C(=O)OC(C)(C)C)S(=O)(=O)[C@H]3C[C@H]2O4)cc1 | 8.76%
36 | CNc1nc2c(c(=O)n(C)c(=O)n2C)n1CCCc1ccccc1 | 14.4%
37 | COc1ccc(S(=O)(=O)N2CCCCC2)cc1NC(=O)CSc1ncccn1 | 2.91%
38 | CC(C)=C[C@@H]1C[C@H](C)[C@H]2CC[C@H](C)c3c(O)c(O)c(C)c1c32 | 15.6%
39 | C(=N\n1cnnc1)/c1nc2ccccc2[nH]1 | 9.24%
40 | Cc1ccc(CN2CCN(Cc3ccccc3-c3ccco3)CC2CCO)o1 (centres unmarked) | -3.73%
41 | O=S(=O)(Cc1ccccc1Cl)NCCOc1ccccc1 | 5.72%
42 | CSc1nc(N)cc(=O)[nH]1 | 8.1%
43 | CC(=O)Nc1cccc(NC(=O)C2CCCN2C(=O)Nc2ccc(Cl)cc2)c1 (centres unmarked) | 6.1%
44 | COC(=O)c1ccc(N2CCOCC2)c(NC(=O)c2ccc3c(c2)OCO3)c1 | 5.34%
45 | COc1ccc(C(=O)/C(=C\N(C)C)n2nc(C)cc2C)cc1 | 1.81%
46 | CCOC(=O)C(=O)Nc1ccc(S(=O)(=O)Nc2nccs2)cc1 | 13.9%

Row | Structure (SMILES) | hERG current change (%, negative = inhibition) at 1uM
47 | COc1ccccc1NC(=O)c1cc(S(=O)(=O)N2CCOCC2)ccc1Cl | -0.529%
48 | CC(C)C1N(C(N)=S)N=CC1(C)C (centres unmarked) | 9.78%
49 | Cc1cccc(NC(=O)NCCN2C(=O)C3C4C=CC(C4)C3C2=O)c1 (centres unmarked) | 1.92%
50 | O=[N+]([O-])c1cccc(-c2nc(NCc3ccccc3)c3ccccc3n2)c1 | 9.78%
51 | CSc1ncccc1C(=O)OCc1ccccc1F | 12.1%
52 | O=C(O)C(=O)O.O=[N+]([O-])c1ccc(CNC2CCCc3ccccc32)cc1 (centres unmarked) | 5.22%
53 | O=C(CCC(=O)Nc1cccc2ccccc12)N/N=C/c1ccco1 | 0.541%
54 | COCCNC(=O)Cn1nc(-c2ccc(C)cc2)ccc1=O | 10.1%
55 | O=C(NC1CCCC1)c1cccc(S(=O)(=O)N2CCOCC2)c1 | 16.4%
56 | Fc1ccc(/C=N/NC(=S)Nc2ccc(Cl)cc2Cl)cc1 | 8.93%
57 | CCc1cccc(C)c1NC(=O)CN1C(=O)c2ccccc2S1(=O)=O | 1.02%
58 | Cc1nnc(SCC(=O)NNC(=O)C(C)C)[nH]c1=O | 13.1%
59 | Cc1cs/c(=N\N=C\c2ccc(O)cc2)n1Cc1ccco1 | 7.62%
60 | O=S(=O)(NCc1cccnc1)c1ccccc1 | 13.7%
61 | O=C(Nn1c(-c2ccccc2)nc2ccccc2c1=O)c1ccco1 | 8.18%
62 | Oc1ccccc1/C=N/n1c(-c2cccs2)n[nH]c1=S | 4.78%
63 | CCNC(=O)COC(=O)/C=C/c1ccccc1[N+](=O)[O-] | 11.8%
64 | CCc1ccccc1N(CC(=O)OC)S(C)(=O)=O | 15.4%
65 | O=C(NCC(=O)N1CCOCC1)c1ccc(Br)o1 | 9.1%
66 | CN(C)c1ccc(C(CNS(=O)(=O)c2ccc([N+](=O)[O-])cc2)N2CCCC2)cc1 (centres unmarked) | -6.67%
67 | CN1CC2=CC(O)CC3Oc4c(O)ccc(c4[C@]23C)C1 (some centres unmarked) | 19.8%
68 | COc1cc(CCC(=O)OCC(=O)Nc2c(C)cc(C)cc2C)cc(OC)c1OC | 3.3%
69 | O=C1NC(=O)/C(=C/c2ccccn2)S1 | 12.5%

Row | Structure (SMILES) | hERG current change (%, negative = inhibition) at 1uM
70 | Cc1cc(C)n(CCC(=O)N2c3ccccc3CC2C)n1 (centres unmarked) | 9.29%
71 | O=C(CCc1nc(-c2ccccc2Cl)no1)NC1CCCCC1 | 16.6%
72 | COc1ccccc1C(=O)Nc1cc(C)c(OCC(=O)N2CCOCC2)c(C)c1 | 12%
73 | CCOC(=O)N1CCN(C(=O)/C(=C/c2ccccc2OC)NC(=O)c2ccccc2)CC1 | -15%
74 | COc1ccc(CCn2c(=N)c(C(=O)NCC3CCCO3)cc3c(=O)n4ccccc4nc32)cc1 (centres unmarked) | -84.4%
75 | COc1ccccc1OCCn1cc(C(=O)O)c2ccccc21 | 6.09%
76 | COc1ccc2cc3cc(C(=O)NCCCN4CCOCC4)oc3nc2c1 | 2.17%
77 | COCC(=O)N/N=C(\C)CC(=O)Nc1ccccc1C(N)=O | 0.0449%
78 | CC1CCC(NC(=O)CC(NC(N)=O)c2ccccc2Cl)CC1 (centres unmarked) | 12.8%
79 | CSCCNC(=O)Nc1c(-c2c(Cl)cccc2Cl)noc1C | 14.6%
80 | O=C(NCc1ccccc1)C(=O)NCC1OCCN1S(=O)(=O)c1cccs1 (centres unmarked) | 12.4%
81 | CCOC(=O)N1CCN(S(=O)(=O)c2c(C)nn(C)c2C)CC1 | 15.6%
82 | O=C(CSc1nn(-c2ccc(F)cc2)c(=S)s1)NCC1CCCO1 (centres unmarked) | -2.14%
83 | Cc1cc(C)c(S(=O)(=O)Nc2cccc(-n3cnnn3)c2)c(C)c1 | 8.21%
84 | CCN(CC)S(=O)(=O)c1ccc(C)c(NC(=O)CNCc2ccccc2OC)c1.O=C(O)C(=O)O | 20.9%
85 | Cc1cccc(Nc2nc(NCCO)nc(N3CCCC3)n2)c1 | 18.1%
86 | CCc1c(C)sc(NC(=O)CSc2nc3c(c(C(F)(F)F)n2)CCc2ccccc2-3)c1C#N | -2.86%
87 | CN1C(=O)N(C)C(c2ccccc2Cl)C2=C1CC(C)(C)CC2=O (centres unmarked) | 18.9%
88 | COC(=O)COc1cccc(NC(=O)c2cccs2)c1 | 9.68%
89 | Cc1nnc(SCc2ccccc2)nc1/C=C/NOCc1ccc(Cl)cc1Cl | 6.82%
